Data reported in PubChem BioAssay AID686979 (National Center for Advancing Translational Sciences (NCATS), 2013).
The campaign covered roughly 420,000 compounds. About 50,000 (12%) were called active. The inconclusive results got no clear call from the source; some entries with a clear call stand among them for comparison. Calls come from the whole dose curve; as a rule, active = well fitted inhibition curve with a large enough effect; inconclusive = small, poorly fitted or top-dose-only effect; inactive = flat fitted curve, though single readings scatter. Potencies of inconclusive entries are left out as doubtful fits.

experiment: qHTS for Inhibitors of human tyrosyl-DNA phosphodiesterase 1 (TDP1): qHTS in cells in presence of CPT; details: chicken DT40 Tdp1-/-;hTDP1 cells + 20 nM CPT, ATP luminescence, 48 h; series mostly up to 46.2 µM; note: nearly all actives have a fitted effect of over 55% in size
In short: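 Chicken DT40 Tdp1-/- cells complemented with human TDP1, 400 cells/well, exposed to compounds plus 20 nM camptothecin for at least 48 h at 37 C; viability read as ATP content by CellTiter-Glo luminescence.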
Potency is the fitted concentration of half-maximal effect; tags give direction and shape of the fitted curve.

Compound | Potency
O=C(CSc1ccc2ccccc2n1)N1CCC(c2noc3ccc(F)cc23)CC1 | active: 16.4 µM
Cc1cccc(N2CCN(Cc3nc(-c4cccc(Cl)c4)oc3C)CC2)n1 | inconclusive [inhibitor, single point]
COc1ccccc1CNC(=O)c1cccc(S(=O)(=O)N(C)c2ccccc2)c1 | active: 25.9 µM
COc1ccc(-c2csc(NC(C)c3nc4cc(Cl)c(Cl)cc4n3CCOCCO)n2)cc1 (stereo not drawn) | inconclusive [inhibitor, partial curve, poor fit]
C[C@@]12C(=O)Nc3cc(Cl)ccc3C(=O)N1[C@H]1c3cc(Br)ccc3OC[C@@H]1[C@@H]2c1ccccc1 | active: 14.6 µM
NC(=O)c1ccccc1NC(=O)c1ccccc1Cl | inactive
O=CNc1cc(-c2cccc(F)c2)cn2c(-c3ccc(F)cc3)cnc12 | active: 29.1 µM
Cc1noc(C)c1CSCC(=O)N(C)CC(=O)Nc1ccccc1Cl | inactive
COC(=O)C1=CN(c2ccc(F)cc2)C=C(C(=O)OC)C1c1cccc(Br)c1 | active: 23.1 µM
Cc1ccc(C(=O)Nc2ccc3c4c(cccc24)CC3)cc1[N+](=O)[O-] | inconclusive [inhibitor, single point]
COc1ccc(Cl)cc1NC(=O)Cn1c(=O)n(-c2ccc(C)cc2)c(=O)c2ccc(C(=O)NCc3ccccc3Cl)cc21 | active: 4.61 µM
CC(NS(=O)(=O)c1ccc(Cl)cc1)C(=O)OCC(=O)c1ccc[nH]1 (stereo not drawn) | inactive
Cc1cc2ncc(S(=O)(=O)c3ccccc3)c(N)n2n1 | inactive
O=C(CSc1nc2ccc([N+](=O)[O-])cc2[nH]1)NCCc1ccccc1 | inconclusive [inhibitor, partial curve]
Cn1c(-c2c(N)n(-c3ccccc3)c3nc4ccccc4nc23)nc2ccccc21 | active: 11.6 µM
O=C(C(c1ccccc1)c1ccccc1)N1CCCc2ccccc21 | inconclusive [inhibitor, single point]
O=S(=O)(c1ccccc1)N1CC2CC(Br)C(Br)CC21 (stereo not drawn) | inactive
Cn1nnnc1SC1CC(=O)N(c2ccccc2)C1=O (stereo not drawn) | active: 2.59 µM
COC(=O)c1c(NC(=O)c2ccccc2)sc2c1CC(C)(C)NC2(C)C | inactive
c1ccc(-c2ccc3c(c2)c2c4n3CCN=C4CCC2)cc1 | active: 23.1 µM
O=C(N=Nc1c(O)[nH]c2ccccc12)c1cccc(S(=O)(=O)Nc2ccccc2Cl)c1 | inconclusive [inhibitor, single point]
COc1cc(C(O)P(=O)(OCC(C)C)OCC(C)C)cc(OC)c1OC (stereo not drawn) | inconclusive [inhibitor, single point]
Cc1[nH]n(-c2ccccc2)c(=S)c1C=NCCCN=Cc1c(C)[nH]n(-c2ccccc2)c1=S | inconclusive [inhibitor, full curve, poor fit]
COc1ccc(CNC(=O)Nc2ccc3c(c2)c(=O)n(C)n3Cc2cccc(C(F)(F)F)c2)cc1 | inconclusive [inhibitor, single point]

Compound | Potency
O=C(NCCc1ccco1)C(=O)NCC1OCCCN1S(=O)(=O)c1ccc(F)cc1 (stereo not drawn) | inactive
O=C1NN(c2ccccc2)C(=O)/C1=C/c1ccc(-c2ccc(Cl)c(C(=O)O)c2)o1 | inactive
COc1ccccc1CNC(=O)CS(=O)Cc1nc(-c2ccccc2C)oc1C (stereo not drawn) | inconclusive [inhibitor, partial curve]
Cc1ccc(NC(=O)C(OC(=O)c2ccc(C=O)cc2)c2ccccc2)cc1Cl (stereo not drawn) | inconclusive [inhibitor, single point]
COc1ccc(C(=O)NC2CC3CCCC(C2)N3Cc2ccccc2)cc1 (stereo not drawn) | inactive
CN1CCN(Cc2cn[nH]c2-c2ccc(F)cc2F)[C@@H](c2ccccc2)C1 | inactive
Cc1nnc(SCc2cc(=O)c3cc(F)ccc3[nH]2)n1C | inactive
CC(C)(COC(=O)Nc1ccccc1)COC(=O)Nc1ccccc1 | inconclusive [inhibitor, partial curve, poor fit]
COc1ccc(CNC(=O)C(=O)NCC(c2ccco2)S(=O)(=O)c2cccs2)cc1 (stereo not drawn) | inactive
CC(=O)c1c(C)[nH]c(C(=O)CN2C(=O)NC(C)(c3ccc(C)cc3)C2=O)c1C (stereo not drawn) | inconclusive [inhibitor, single point]
CCSc1nnc(C)n1-c1ccc(C(=O)O)cc1 | inactive
O=C1NC(=Nc2cccnc2)S/C1=C/c1ccc(F)cc1 | active: 2.91 µM
CCCCn1c(SCc2ccccc2C)nc2ccsc2c1=O | inconclusive [inhibitor, single point]
Cc1ccc(N2C(=O)[C@@H]3[C@H](C2=O)C2c4ccccc4C=CN2[C@@H]3C(=O)c2ccco2)c(C)c1 (stereo partly drawn) | inconclusive [inhibitor, single point]
N/C(=N\OC(=O)CCN1C(=O)c2ccccc2C1=O)c1ccccn1 | inactive
CC1=C(C#N)C(NC(=O)c2ccccc2)(C(F)(F)F)C(=O)N1 (stereo not drawn) | inactive
CCOC(=O)C1=C(COC(=O)c2cccc(NC(C)=O)c2)NC(=O)NC1C (stereo not drawn) | inconclusive [inhibitor, single point]
CCc1nc2ccc(C(=O)NCc3ccc(OC)cc3)cn2c1N(C)C(=O)Cc1ccccc1 | inconclusive [inhibitor, single point]
C=C(C)Cn1c(SCC(=O)c2ccc(Br)cc2)nc2sc3c(c2c1=O)CCCC3 | inactive
CCOc1ccccc1NC(=O)COC(=O)CCOc1cc(C)ccc1C | inactive
CCCCNC(=O)CCc1c(C)nc2nc(-c3cc(OC)cc(OC)c3)nn2c1C | inactive
CNC(=O)N(O)C1N(/N=C/c2c(F)cccc2Cl)C(=S)SC1(C)C (stereo not drawn) | inactive
Cc1ccc(NS(=O)(=O)c2ccc3c(c2)CCN3C(=O)C2CC2)c(C)c1 | inconclusive [inhibitor, partial curve]
CC(C)(C)NC(=O)NC(=O)CN1CCN(c2ncc(C(F)(F)F)cc2Cl)CC1 | inconclusive [inhibitor, single point]
